Consider one substance from publication PMC6078952.

By UniProt entry, the sequences of proteins in these tests, tags left out. Where a name states a change or a piece, a line headed by the entry shows the natural chain unless it says otherwise. Chains listed by the source or under a name are the forms on record and can include a tag or linker. Residues count along the entry.
Lysyl oxidase propeptide (LOX-PP) (Pro24Leu) (P28300, form named): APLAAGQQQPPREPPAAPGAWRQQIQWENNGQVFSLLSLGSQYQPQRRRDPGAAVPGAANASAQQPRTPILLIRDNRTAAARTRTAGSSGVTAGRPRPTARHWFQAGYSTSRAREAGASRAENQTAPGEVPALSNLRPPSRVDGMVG
UniProt P16234, residues 24-524: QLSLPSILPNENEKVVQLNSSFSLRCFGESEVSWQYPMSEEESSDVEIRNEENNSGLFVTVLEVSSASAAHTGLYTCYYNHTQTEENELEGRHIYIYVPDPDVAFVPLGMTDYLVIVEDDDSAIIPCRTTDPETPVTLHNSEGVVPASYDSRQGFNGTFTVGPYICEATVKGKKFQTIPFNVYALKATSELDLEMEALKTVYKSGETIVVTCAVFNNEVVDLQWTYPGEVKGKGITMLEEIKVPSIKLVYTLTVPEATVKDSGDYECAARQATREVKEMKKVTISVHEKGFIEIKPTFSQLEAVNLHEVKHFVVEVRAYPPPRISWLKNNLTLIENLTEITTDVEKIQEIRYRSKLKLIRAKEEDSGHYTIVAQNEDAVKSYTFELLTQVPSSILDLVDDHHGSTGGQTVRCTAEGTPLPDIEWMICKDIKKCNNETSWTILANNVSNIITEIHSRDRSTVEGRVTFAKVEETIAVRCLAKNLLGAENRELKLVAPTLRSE
UniProt P01375, residues 77-233: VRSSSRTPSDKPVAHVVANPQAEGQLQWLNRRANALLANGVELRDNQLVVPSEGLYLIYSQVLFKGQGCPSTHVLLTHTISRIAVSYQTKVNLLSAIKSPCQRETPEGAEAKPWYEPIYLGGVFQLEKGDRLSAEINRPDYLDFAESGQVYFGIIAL
UniProt O75056, residues 48-383: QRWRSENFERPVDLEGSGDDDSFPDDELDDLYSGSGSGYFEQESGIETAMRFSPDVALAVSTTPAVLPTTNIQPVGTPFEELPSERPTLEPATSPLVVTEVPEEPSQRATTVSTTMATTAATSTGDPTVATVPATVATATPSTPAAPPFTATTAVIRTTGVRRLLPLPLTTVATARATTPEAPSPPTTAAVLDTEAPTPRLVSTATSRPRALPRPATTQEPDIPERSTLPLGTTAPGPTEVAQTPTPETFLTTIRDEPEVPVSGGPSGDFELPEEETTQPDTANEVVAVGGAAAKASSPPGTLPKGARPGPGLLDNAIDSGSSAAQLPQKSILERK
UniProt P19137: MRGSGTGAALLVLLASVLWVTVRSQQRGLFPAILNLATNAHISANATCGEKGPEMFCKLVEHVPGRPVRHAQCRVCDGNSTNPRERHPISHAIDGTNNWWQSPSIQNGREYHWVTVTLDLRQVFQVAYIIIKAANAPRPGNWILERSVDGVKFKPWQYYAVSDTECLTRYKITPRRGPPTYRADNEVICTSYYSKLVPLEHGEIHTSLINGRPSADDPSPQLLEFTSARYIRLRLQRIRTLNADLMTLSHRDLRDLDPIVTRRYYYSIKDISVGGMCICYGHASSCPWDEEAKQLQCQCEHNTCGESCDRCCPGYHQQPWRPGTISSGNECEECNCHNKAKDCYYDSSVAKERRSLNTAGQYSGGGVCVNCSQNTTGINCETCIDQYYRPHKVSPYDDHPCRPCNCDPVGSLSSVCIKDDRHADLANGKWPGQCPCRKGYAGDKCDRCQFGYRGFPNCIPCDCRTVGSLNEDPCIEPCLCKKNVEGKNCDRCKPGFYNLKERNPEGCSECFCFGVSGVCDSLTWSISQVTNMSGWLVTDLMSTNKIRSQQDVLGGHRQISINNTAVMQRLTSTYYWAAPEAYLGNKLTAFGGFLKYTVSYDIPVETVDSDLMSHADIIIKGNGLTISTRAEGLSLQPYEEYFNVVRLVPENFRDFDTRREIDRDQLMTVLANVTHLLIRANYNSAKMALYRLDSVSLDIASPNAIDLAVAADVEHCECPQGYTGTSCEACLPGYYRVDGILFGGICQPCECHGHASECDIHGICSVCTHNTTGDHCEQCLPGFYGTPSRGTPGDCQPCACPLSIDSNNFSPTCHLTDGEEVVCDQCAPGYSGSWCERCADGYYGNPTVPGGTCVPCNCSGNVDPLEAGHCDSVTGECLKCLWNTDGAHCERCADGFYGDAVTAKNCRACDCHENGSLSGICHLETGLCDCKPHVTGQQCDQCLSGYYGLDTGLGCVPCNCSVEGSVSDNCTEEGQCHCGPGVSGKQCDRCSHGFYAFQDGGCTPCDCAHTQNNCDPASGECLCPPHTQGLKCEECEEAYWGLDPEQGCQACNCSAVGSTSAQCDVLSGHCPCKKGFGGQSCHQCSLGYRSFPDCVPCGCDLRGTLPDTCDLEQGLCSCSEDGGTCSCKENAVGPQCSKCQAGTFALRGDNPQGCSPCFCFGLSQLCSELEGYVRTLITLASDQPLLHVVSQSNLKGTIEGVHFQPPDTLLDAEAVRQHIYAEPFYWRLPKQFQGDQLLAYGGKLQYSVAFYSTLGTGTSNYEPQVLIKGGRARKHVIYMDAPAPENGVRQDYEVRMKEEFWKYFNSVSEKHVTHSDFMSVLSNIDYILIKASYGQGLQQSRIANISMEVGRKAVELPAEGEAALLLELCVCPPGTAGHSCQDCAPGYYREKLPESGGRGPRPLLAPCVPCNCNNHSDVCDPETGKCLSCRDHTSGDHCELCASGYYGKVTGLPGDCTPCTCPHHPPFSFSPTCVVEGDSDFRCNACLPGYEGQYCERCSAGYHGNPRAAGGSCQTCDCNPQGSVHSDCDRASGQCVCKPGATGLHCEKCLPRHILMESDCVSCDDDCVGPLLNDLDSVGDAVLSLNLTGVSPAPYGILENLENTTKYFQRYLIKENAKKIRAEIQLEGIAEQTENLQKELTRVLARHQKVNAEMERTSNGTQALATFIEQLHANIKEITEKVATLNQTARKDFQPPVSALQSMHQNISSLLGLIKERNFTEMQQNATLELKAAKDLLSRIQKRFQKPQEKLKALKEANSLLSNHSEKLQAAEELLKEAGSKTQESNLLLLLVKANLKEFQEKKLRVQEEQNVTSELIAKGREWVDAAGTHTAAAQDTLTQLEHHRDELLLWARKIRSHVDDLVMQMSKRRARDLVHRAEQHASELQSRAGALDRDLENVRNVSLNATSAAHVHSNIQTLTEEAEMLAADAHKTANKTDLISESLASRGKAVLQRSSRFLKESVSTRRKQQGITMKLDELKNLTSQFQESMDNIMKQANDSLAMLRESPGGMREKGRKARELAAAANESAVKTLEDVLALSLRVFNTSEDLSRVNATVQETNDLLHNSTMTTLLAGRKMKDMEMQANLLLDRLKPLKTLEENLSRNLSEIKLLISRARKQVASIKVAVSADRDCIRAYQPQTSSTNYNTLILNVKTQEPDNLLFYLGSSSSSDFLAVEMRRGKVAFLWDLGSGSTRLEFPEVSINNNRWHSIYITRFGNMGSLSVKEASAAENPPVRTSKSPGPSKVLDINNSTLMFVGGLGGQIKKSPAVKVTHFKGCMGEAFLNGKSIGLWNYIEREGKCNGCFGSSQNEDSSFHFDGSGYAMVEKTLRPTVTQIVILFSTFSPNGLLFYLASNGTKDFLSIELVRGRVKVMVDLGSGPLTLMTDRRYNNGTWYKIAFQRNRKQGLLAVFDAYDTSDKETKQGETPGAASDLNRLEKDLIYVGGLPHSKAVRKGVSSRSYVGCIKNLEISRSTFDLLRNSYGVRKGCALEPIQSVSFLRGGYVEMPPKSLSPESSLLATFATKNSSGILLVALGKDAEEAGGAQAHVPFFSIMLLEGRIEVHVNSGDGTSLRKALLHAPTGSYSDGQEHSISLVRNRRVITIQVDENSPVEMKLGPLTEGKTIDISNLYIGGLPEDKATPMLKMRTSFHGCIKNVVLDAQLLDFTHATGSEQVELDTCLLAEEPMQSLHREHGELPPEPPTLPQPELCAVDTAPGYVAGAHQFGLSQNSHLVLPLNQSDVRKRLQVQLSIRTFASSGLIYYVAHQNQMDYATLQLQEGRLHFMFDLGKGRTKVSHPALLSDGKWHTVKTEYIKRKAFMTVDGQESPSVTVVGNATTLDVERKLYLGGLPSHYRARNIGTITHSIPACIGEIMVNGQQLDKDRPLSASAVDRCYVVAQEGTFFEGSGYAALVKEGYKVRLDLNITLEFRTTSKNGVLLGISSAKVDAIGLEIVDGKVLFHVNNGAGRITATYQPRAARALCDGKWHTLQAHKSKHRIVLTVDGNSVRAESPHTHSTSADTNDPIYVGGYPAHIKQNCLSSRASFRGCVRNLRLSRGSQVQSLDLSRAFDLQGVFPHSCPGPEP
UniProt P10451, residues 17-314: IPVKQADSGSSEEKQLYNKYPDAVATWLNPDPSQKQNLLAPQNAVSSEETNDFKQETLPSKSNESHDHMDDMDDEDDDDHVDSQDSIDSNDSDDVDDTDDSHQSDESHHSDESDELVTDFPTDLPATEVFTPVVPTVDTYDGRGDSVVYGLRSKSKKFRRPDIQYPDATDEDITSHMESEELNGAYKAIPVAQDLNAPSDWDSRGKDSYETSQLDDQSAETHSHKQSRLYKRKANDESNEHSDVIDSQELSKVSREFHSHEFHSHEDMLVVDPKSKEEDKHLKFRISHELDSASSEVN

No constants are given. Whether binding was seen depends on the method and setting. Some binding calls cover weakened binding; strength is not graded here.

What all share (assay): SPR; SPR imaging (SPRi, Biacore Flexchip): partners spotted in triplicate on a bare gold chip at 0.06 to 1 mg/ml; purified LOX-PP injected at 2 µM and recirculated for 20 min; PBS with 0.05% Tween 20, 25 °C; both purified
For experiment [1], the target named is Lysyl oxidase propeptide (LOX-PP) (Pro24Leu) (human) (UniProt P28300).
The target in experiment [2] is Platelet-derived growth factor receptor alpha (PDGFRα) (UniProt P16234).
The target of experiment [3] is T1, Osteonectin (SPARC) (UniProt P09486).
T1 sequence: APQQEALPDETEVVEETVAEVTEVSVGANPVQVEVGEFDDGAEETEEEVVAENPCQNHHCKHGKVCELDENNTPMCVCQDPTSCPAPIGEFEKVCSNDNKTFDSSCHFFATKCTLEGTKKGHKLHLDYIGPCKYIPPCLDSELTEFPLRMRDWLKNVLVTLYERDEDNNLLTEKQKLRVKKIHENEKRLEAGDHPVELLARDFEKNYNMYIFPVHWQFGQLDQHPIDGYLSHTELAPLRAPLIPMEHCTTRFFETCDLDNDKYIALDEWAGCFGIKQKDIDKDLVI

Experiment [4] concerns the target Tumor necrosis factor α (TNFα) (UniProt P01375).
The target of experiment [5] is Syndecan-3 ectodomain (UniProt O75056).
Experiment [6] concerns the target T2, Hyaluronidase-1 (UniProt Q12794).
T2 sequence: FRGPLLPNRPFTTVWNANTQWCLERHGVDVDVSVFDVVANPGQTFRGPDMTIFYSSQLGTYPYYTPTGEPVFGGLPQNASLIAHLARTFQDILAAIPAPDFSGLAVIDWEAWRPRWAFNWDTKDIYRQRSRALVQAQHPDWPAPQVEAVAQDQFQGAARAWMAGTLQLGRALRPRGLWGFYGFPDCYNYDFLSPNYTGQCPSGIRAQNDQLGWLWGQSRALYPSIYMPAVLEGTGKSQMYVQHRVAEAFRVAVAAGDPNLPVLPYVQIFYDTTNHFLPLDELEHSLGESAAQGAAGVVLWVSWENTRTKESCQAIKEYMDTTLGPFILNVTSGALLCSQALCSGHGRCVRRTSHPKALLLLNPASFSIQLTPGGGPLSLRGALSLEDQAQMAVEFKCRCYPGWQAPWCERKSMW

For experiment [7], the target named is T3, Latent transforming growth factor β binding protein 1 (4-7 EGF-like domains) (UniProt Q14766).
T3 sequence: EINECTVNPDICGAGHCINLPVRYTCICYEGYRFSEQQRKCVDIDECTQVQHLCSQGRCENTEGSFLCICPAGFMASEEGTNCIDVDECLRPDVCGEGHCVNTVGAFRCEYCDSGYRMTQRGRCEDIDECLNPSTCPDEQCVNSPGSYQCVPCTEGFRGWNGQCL

Experiment [8] deals with T4, Lysyl oxidase homolog 3 (LOXL3) (UniProt P58215).
T4 sequence: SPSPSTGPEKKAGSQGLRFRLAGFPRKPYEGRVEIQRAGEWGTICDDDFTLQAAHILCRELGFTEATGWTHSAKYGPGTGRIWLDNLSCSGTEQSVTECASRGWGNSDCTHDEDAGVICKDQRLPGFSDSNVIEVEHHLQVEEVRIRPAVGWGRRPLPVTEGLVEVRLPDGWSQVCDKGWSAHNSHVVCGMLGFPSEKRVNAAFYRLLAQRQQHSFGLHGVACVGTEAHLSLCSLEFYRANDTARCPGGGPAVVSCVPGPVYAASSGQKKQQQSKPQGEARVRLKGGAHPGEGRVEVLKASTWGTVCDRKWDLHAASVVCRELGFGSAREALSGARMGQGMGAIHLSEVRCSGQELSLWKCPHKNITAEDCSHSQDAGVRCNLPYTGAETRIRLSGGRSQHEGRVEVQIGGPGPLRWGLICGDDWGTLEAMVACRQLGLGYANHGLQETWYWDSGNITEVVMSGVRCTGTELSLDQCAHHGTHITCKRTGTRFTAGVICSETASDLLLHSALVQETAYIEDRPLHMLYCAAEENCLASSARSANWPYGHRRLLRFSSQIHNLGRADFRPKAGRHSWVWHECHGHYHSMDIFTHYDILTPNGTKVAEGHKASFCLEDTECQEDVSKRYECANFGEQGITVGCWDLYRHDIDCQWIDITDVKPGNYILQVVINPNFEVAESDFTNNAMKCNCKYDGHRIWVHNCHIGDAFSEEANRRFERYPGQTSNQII

Experiment [9] has as its target Laminin-111 (UniProt P19137).
Experiment [10] concerns the target Osteopontin (with bovine serum albumin) (UniProt P10451).

Consider “Lysyl oxidase propeptide (LOX-PP) (Pro24Leu) (from UniProt P28300 22-168) (domain or fragment)”, for which the binding result in experiment [1], in experiment [2], in experiment [3], in [4], in experiment [5] and in experiment [6] was “no binding (tested: 2 µM)” each time. Also, the binding result is on record as “binds” in experiment [7], “no binding (tested: 2 µM)” in experiment [8], “no binding (tested: 2 µM)” in experiment [9] and “no binding (tested: 2 µM)” in experiment [10].
